# Reference: a collection of fitness landscapes (doi:10.1038/s41467-024-54723-y)
# In all, about 18,000 sequences were measured (“TetR repression strength (sort-seq, GFP reporter)”: median about 0.23, highest 2% from about 0.68 on). The list shows a part of the results.
# Molecular target: TetR (class B, Tn10) (UniProt P04483)
# Assay: TetR repression strength (sort-seq, GFP reporter) (relative to tetO2 = 1); higher = stronger repression
# Settings: E. coli
# Procedure, shortened: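 Escherichia coli SIG10-MAX cells carried a low-copy plasmid library in which eight operator positions were randomized between a constitutive promoter and sfGFP, and TetR was expressed constitutively. After 5 h of growth at 37 °C in LB with 50 µg/mL chloramphenicol, 10^6 cells were FACS-sorted into 13 fluorescence bins, and each bin was Illumina-sequenced. Repression strength was the top bin index plus one minus the read-weighted mean bin, divided by the value for the unaltered operator. Across three independent transformations, only library members with ≥30 reads in every replicate and a CV ≤0.5 were averaged.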
# Sequence of UniProt P04483 (P04483 whole entry): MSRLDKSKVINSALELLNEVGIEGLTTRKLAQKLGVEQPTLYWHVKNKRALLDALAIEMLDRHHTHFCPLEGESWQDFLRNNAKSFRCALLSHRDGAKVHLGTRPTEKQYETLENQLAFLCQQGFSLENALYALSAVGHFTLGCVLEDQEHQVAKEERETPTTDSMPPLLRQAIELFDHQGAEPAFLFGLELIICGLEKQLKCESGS
row,Sequence,TetR repression strength
1,TCCCTTAAAGTGGGAGAGA,0.0433
2,TCCCTGATAGTATTCGAGA,0.0766
3,TCCCTTCGAGTGAACGAGA,0.445
4,TCCCGAGTAGTCGGTGAGA,0.279
5,TCCCTAGGAGTAGTGGAGA,0.176
6,TCCCAGCGAGTCGAGGAGA,0.173
7,TCCCTTGTAGTTGGCGAGA,0.186
8,TCCCGGGCAGTTGGTGAGA,0.397
9,TCCCGTTAAGTAGTTGAGA,0.135
10,TCCCATTCAGTTACTGAGA,0.319
11,TCCCGCCCAGTGTTTGAGA,0.372
12,TCCCGGGGAGTCCGGGAGA,0.191
13,TCCCGGCTAGTCTATGAGA,0.383
14,TCCCACAGAGTATGGGAGA,0.143
15,TCCCAAACAGTAGGGGAGA,0.38
16,TCCCAGTTAGTCGAGGAGA,0.251
17,TCCCGTTCAGTTAGCGAGA,0.249
18,TCCCAGAGAGTGGCCGAGA,0.529
19,TCCCCTGCAGTGGCGGAGA,0.235
20,TCCCACCTAGTATTCGAGA,0.516
21,TCCCCCTAAGTGCCCGAGA,0.304
22,TCCCGCCTAGTCCGCGAGA,0.17
23,TCCCGAACAGTTGGGGAGA,0.306
24,TCCCTTTTAGTGCCTGAGA,0.325
25,TCCCCATTAGTATTCGAGA,0.24
26,TCCCGAGAAGTAATAGAGA,0.442

row,Sequence,TetR repression strength
1,TCCCCTTTAGTTCGAGAGA,0.232
2,TCCCGGGCAGTAAGGGAGA,0.46
3,TCCCTCGAAGTAGTGGAGA,0.369
4,TCCCTGTCAGTTATAGAGA,0.649
5,TCCCTTTGAGTGGGAGAGA,0.117
6,TCCCCTTTAGTCTGGGAGA,0.166
7,TCCCCCGTAGTAGGAGAGA,0.197
8,TCCCCAGAAGTTTTGGAGA,0.182
9,TCCCACGCAGTCAGGGAGA,0.182
10,TCCCTGTGAGTCATCGAGA,0.105
11,TCCCTTGCAGTCACGGAGA,0.191
12,TCCCTTGTAGTCACAGAGA,0.106
13,TCCCTTTAAGTCGCTGAGA,0.207
14,TCCCCGAAAGTGCGCGAGA,0.155
15,TCCCGCGAAGTAATTGAGA,0.32
16,TCCCAAAAAGTATTAGAGA,0.191
17,TCCCGGAGAGTATCAGAGA,0.893
18,TCCCTGGCAGTCGTGGAGA,0.0845
19,TCCCCTTTAGTCCTCGAGA,0.418
20,TCCCGATGAGTATTTGAGA,0.266
21,TCCCTGTAAGTCACGGAGA,0.193
22,TCCCTTGCAGTGATCGAGA,0.654
23,TCCCGAAAAGTCGGAGAGA,0.311
24,TCCCGTGGAGTACCGGAGA,0.117
25,TCCCGAAAAGTTAGCGAGA,0.164
26,TCCCCTAGAGTTGGGGAGA,0.122

row,Sequence,TetR repression strength
1,TCCCGTGGAGTTTAGGAGA,0.234
2,TCCCGACCAGTGTTCGAGA,0.375
3,TCCCTTAGAGTGGAGGAGA,0.0629
4,TCCCATGAAGTCGGGGAGA,0.0204
5,TCCCAGAGAGTTGAAGAGA,0.152
6,TCCCGTGCAGTCATTGAGA,0.276
7,TCCCGGAGAGTGTCGGAGA,0.291
8,TCCCGTGAAGTATTTGAGA,0.335
9,TCCCTTTAAGTAGGGGAGA,0.0919
10,TCCCTCCTAGTGCTTGAGA,0.212
11,TCCCAGCTAGTAGGGGAGA,0.233
12,TCCCAATGAGTCTGCGAGA,0.281
13,TCCCGGTAAGTCTCTGAGA,0.311
14,TCCCGGCTAGTACTTGAGA,0.199
15,TCCCTTTGAGTACCGGAGA,0.283
16,TCCCTGTCAGTGGGTGAGA,0.348
17,TCCCGCAAAGTGGCTGAGA,0.0444
18,TCCCAACAAGTGACCGAGA,0.231
19,TCCCAATGAGTGTTCGAGA,0.26
20,TCCCGCGCAGTCCAGGAGA,0.121
21,TCCCCACGAGTACCAGAGA,0.475
22,TCCCGTCTAGTTGACGAGA,0.0662
23,TCCCTACGAGTGTGTGAGA,0.305
24,TCCCGTACAGTCTCTGAGA,0.205
25,TCCCAACCAGTTGGGGAGA,0.0981
26,TCCCCCGTAGTGGGTGAGA,0.109

row,Sequence,TetR repression strength
1,TCCCTGTCAGTGCTCGAGA,0.534
2,TCCCACGGAGTGGTGGAGA,0.11
3,TCCCCCGTAGTGTGGGAGA,0.124
4,TCCCAGATAGTCCTGGAGA,0.167
5,TCCCGGGGAGTGATAGAGA,0.531
6,TCCCCGCCAGTTGTGGAGA,0.181
7,TCCCGCGTAGTGGTTGAGA,0.826
8,TCCCTGTGAGTCTCAGAGA,0.365
9,TCCCTTGTAGTACTCGAGA,0.182
10,TCCCTGCTAGTTCGCGAGA,0.204
11,TCCCTTTCAGTCATCGAGA,0.53
12,TCCCCTATAGTGGATGAGA,0.0379
13,TCCCGAGCAGTCGGAGAGA,0.119
14,TCCCGATCAGTGACAGAGA,0.742
15,TCCCTAGGAGTTCGAGAGA,0.115
16,TCCCTAAGAGTAGTTGAGA,0.207
17,TCCCTTTTAGTGGAAGAGA,0.271
18,TCCCCAGGAGTAAGAGAGA,0.381
19,TCCCACTTAGTCTGTGAGA,0.188
20,TCCCCTACAGTAAGGGAGA,0.153
21,TCCCGAGCAGTTGCTGAGA,0.168
22,TCCCTGGCAGTTTGCGAGA,0.65
23,TCCCAGTGAGTTGTGGAGA,0.173
24,TCCCACCTAGTTTTGGAGA,0.348
25,TCCCGCACAGTTATAGAGA,0.275
26,TCCCCCTGAGTGGGCGAGA,0.241

row,Sequence,TetR repression strength
1,TCCCTTTTAGTGTTCGAGA,0.282
2,TCCCTGTCAGTCACGGAGA,0.181
3,TCCCAACTAGTTCGGGAGA,0.144
4,TCCCTATAAGTTCAAGAGA,0.458
5,TCCCGGCTAGTCCGGGAGA,0.264
6,TCCCTGTTAGTGCGCGAGA,0.617
7,TCCCTTGCAGTCCCTGAGA,0.296
8,TCCCGGTCAGTGGGGGAGA,0.19
9,TCCCACGGAGTGCACGAGA,0.285
10,TCCCATCAAGTGCGAGAGA,0.166
11,TCCCGTCGAGTGGTCGAGA,0.0327
12,TCCCAGTGAGTAGGTGAGA,0.112
13,TCCCTAGAAGTTTGGGAGA,0.173
14,TCCCGAACAGTTGACGAGA,0.204
15,TCCCTTCAAGTGGGAGAGA,0.0682
16,TCCCTTTCAGTGGGCGAGA,0.382
17,TCCCAGCTAGTAGGCGAGA,0.0972
18,TCCCGTCGAGTATCCGAGA,0.0859
19,TCCCCTGGAGTAATTGAGA,0.367
20,TCCCCAACAGTAGGAGAGA,0.207
21,TCCCGCGAAGTTCGGGAGA,0.0228
22,TCCCGCTAAGTTGCAGAGA,0.265
23,TCCCGCAAAGTCGATGAGA,0.0237
24,TCCCCCGCAGTCCTCGAGA,0.41
25,TCCCGGGGAGTGGCAGAGA,0.34
26,TCCCCCAGAGTCAGTGAGA,0.163

row,Sequence,TetR repression strength
1,TCCCGATAAGTGAAAGAGA,0.451
2,TCCCGGGCAGTTTTGGAGA,0.0982
3,TCCCTGATAGTGCTCGAGA,0.215
4,TCCCCTGAAGTCGTAGAGA,0.199
5,TCCCCATGAGTGCCAGAGA,0.266
6,TCCCAACGAGTTGTTGAGA,0.0336
7,TCCCCTACAGTTCTGGAGA,0.207
8,TCCCCGAAAGTTACTGAGA,0.243
9,TCCCAGGCAGTGATTGAGA,0.247
10,TCCCGGAGAGTAGGGGAGA,0.268
11,TCCCGTAGAGTTGTTGAGA,0.207
12,TCCCCGACAGTCGTTGAGA,0.103
13,TCCCGCGGAGTACGTGAGA,0.102
14,TCCCGTCCAGTGAATGAGA,0.387
15,TCCCATTCAGTGCACGAGA,0.691
16,TCCCAGGCAGTGTGGGAGA,0.289
17,TCCCCTTAAGTACGAGAGA,0.0791
18,TCCCGCTGAGTTCGTGAGA,0.185
19,TCCCCGCGAGTTTGGGAGA,0
20,TCCCTTCAAGTATAGGAGA,0.206
21,TCCCCAGGAGTAGGGGAGA,0.114
22,TCCCTGGAAGTTGGTGAGA,0.0653
23,TCCCCGACAGTAATCGAGA,0.0806
24,TCCCTTTGAGTCTACGAGA,0.427
25,TCCCTGTAAGTTGGGGAGA,0.333
26,TCCCCAAGAGTCAACGAGA,0.359

row,Sequence,TetR repression strength
1,TCCCTGTTAGTACGTGAGA,0
2,TCCCAATTAGTCCCGGAGA,0.165
3,TCCCTCTTAGTACGTGAGA,0.25
4,TCCCTTCCAGTTTTGGAGA,0.364
5,TCCCTCGTAGTGGGTGAGA,0.815
6,TCCCGGTGAGTGACCGAGA,0.207
7,TCCCCATCAGTGGTAGAGA,0.417
8,TCCCGTGCAGTATGTGAGA,0.207
9,TCCCGTGCAGTGCAGGAGA,0.513
10,TCCCGGAGAGTGTGGGAGA,0.358
11,TCCCCTTCAGTATTTGAGA,0.269
12,TCCCGTAAAGTAGCAGAGA,0.185
13,TCCCTATGAGTTCCCGAGA,0.289
14,TCCCTGACAGTGTGAGAGA,0.297
15,TCCCATTCAGTGGGTGAGA,0.278
16,TCCCAACTAGTGAAAGAGA,0.386
17,TCCCATGAAGTTGCTGAGA,0.107
18,TCCCTTTAAGTCCAAGAGA,0.221
19,TCCCAACCAGTCAACGAGA,0.251
20,TCCCCGTCAGTGCGGGAGA,0.0283
21,TCCCGTAGAGTTGGGGAGA,0.214
22,TCCCTTTGAGTTATCGAGA,0.384
23,TCCCATTGAGTTTTCGAGA,0.275
24,TCCCACAAAGTGCGGGAGA,0.453
25,TCCCGGGCAGTGAAGGAGA,0.251
26,TCCCCAAGAGTGGGAGAGA,0.265

row,Sequence,TetR repression strength
1,TCCCTTCAAGTCGGCGAGA,0.361
2,TCCCACACAGTCGGAGAGA,0.333
3,TCCCGAATAGTAAATGAGA,0.247
4,TCCCGATAAGTGGTCGAGA,0.18
5,TCCCCTAGAGTGTGGGAGA,0.00482
6,TCCCAGTAAGTTGCAGAGA,0.235
7,TCCCAGGAAGTCGAGGAGA,0.116
8,TCCCCGTAAGTAAACGAGA,0.197
9,TCCCGAACAGTCAATGAGA,0.347
10,TCCCCGGCAGTCAGCGAGA,0.269
11,TCCCGTGCAGTAGGAGAGA,0.157
12,TCCCAACTAGTAGTTGAGA,0.358
13,TCCCGGGAAGTGTAAGAGA,0.0587
14,TCCCTAAGAGTTCGGGAGA,0.65
15,TCCCGGCTAGTTCGCGAGA,0.375
16,TCCCCGCTAGTTGAAGAGA,0.321
17,TCCCAACTAGTTCATGAGA,0.267
18,TCCCGCCGAGTGAGTGAGA,0.312
19,TCCCGGACAGTAGTTGAGA,0.129
20,TCCCAGGGAGTGTTAGAGA,0.263
21,TCCCACTGAGTGGTCGAGA,0.438
22,TCCCGGGTAGTGTCCGAGA,0.209
